Measured values published in the supplement of paper PMC4604168 (melanoma cell lines).
The list shows a part of the results. Repeats are few or missing, and single values can be far off.

Tested on: 501Mel
Assay: cell count relative to DMSO control; melanoma cells; higher = more viable cells
Details: library dose: low library concentration; 72 h
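Further: cell number obtained by counting DAPI-stained nuclei in high-throughput microscope images with image analysis software, screen run in 1,536-well plates.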

**Q.** For Cc1cc(N2CCOCC2)cc2[nH]c(-c3c(NC[C@@H](O)c4cccc(Cl)c4)cc[nH]c3=O)nc12 + NCC(=O)Nc1ccc(-n2nc(C(F)(F)F)cc2-c2ccc3c(ccc4ccccc43)c2)cc1 [OSU03012] (first compound 0.2 µM, partner dose 1 µM), which cell count is on record?
**A.** 52%

**Q.** How did the cell count turn out when O=C(O)c1ccc2c(c1)nc(Nc1cccc(Cl)c1)c1ccncc12 + CO[C@@H]1[C@H](N(C)C(=O)c2ccccc2)C[C@H]2O[C@]1(C)n1c3ccccc3c3c4c(c5c6ccccc6n2c5c31)C(=O)NC4 [Midostaurin] (first compound 0.4 µM, partner dose 0.08 µM) was run?
**A.** 102%

**Q.** O=C(Nc1cc(C(F)(F)F)cc(C(F)(F)F)c1)c1cc(Cl)ccc1O + NCC(=O)Nc1ccc(-n2nc(C(F)(F)F)cc2-c2ccc3c(ccc4ccccc43)c2)cc1 [OSU03012] (first compound 0.016 µM, partner dose 1 µM) was tested. Which cell count did it give?
**A.** 41.4%

**Q.** With O=C(Nc1cc(C(F)(F)F)cc(C(F)(F)F)c1)c1cc(Cl)ccc1O + OCc1c[nH]c2ccccc12 [Indole-3-carbinol] (first compound 0.016 µM, partner dose 0.8 µM) as the compound, how does the cell count read?
**A.** 141%

**Q.** Which cell count does the source give for O=C(O)c1ccc2c(c1)nc(Nc1cccc(Cl)c1)c1ccncc12 + Cc1cc(N2CCOCC2)cc2[nH]c(-c3c(NC[C@@H](O)c4cccc(Cl)c4)cc[nH]c3=O)nc12 [BMS536924] (first compound 0.4 µM, partner dose 0.2 µM) here?
**A.** 86.1%

**Q.** How did the cell count turn out when O=C(O)[C@@H]1[O][Sb](=[O])([O][Sb]2(=[O])[O][C@H]([C@H](O)CO)[C@H](O)[C@H](C(=O)O)[O]2)[O][C@H]([C@H](O)CO)[C@@H]1O (stereo partly drawn) [stibogluconate] + CC(C)(C)c1cnc(CSc2cnc(NC(=O)C3CCNCC3)s2)o1 [SNS-032] (first compound 2 µM, partner dose 0.01 µM) was run?
**A.** 95.2%

**Q.** O=C(Nc1cc(C(F)(F)F)cc(C(F)(F)F)c1)c1cc(Cl)ccc1O + COc1cc(Nc2ncc(F)c(Nc3ccc4c(n3)NC(=O)C(C)(C)O4)n2)cc(OC)c1OC [Tamatinib] (first compound 0.016 µM, partner dose 0.4 µM) was tested. Which cell count did it give?
**A.** 78%

**Q.** O=C(O)[C@@H]1[O][Sb](=[O])([O][Sb]2(=[O])[O][C@H]([C@H](O)CO)[C@H](O)[C@H](C(=O)O)[O]2)[O][C@H]([C@H](O)CO)[C@@H]1O (stereo partly drawn) [stibogluconate] + Cc1nc(Nc2ncc(C(=O)Nc3c(C)cccc3Cl)s2)cc(N2CCN(CCO)CC2)n1 [dasatanib] (first compound 2 µM, partner dose 0.004 µM) was tested. Which cell count did it give?
**A.** 74.5%

**Q.** How did the cell count turn out when O=C(O)c1ccc2c(c1)nc(Nc1cccc(Cl)c1)c1ccncc12 + CN(NC(=O)CC(=O)NN(C)C(=S)c1ccccc1)C(=S)c1ccccc1 [STA4783] (first compound 0.4 µM, partner dose 0.006 µM) was run?
**A.** 47.8%

**Q.** O=C(Nc1cc(C(F)(F)F)cc(C(F)(F)F)c1)c1cc(Cl)ccc1O + O=c1[nH]nc(Sc2ncc([N+](=O)[O-])s2)n1-c1ccc2c(c1)OCCO2 [BI78D3] (first compound 0.016 µM, partner dose 0.2 µM) was tested. Which cell count did it give?
**A.** 57%

**Q.** How did the cell count turn out when O=C(Nc1cc(C(F)(F)F)cc(C(F)(F)F)c1)c1cc(Cl)ccc1O + O=C(CCCCCCC(=O)Nc1ccccc1)NO [vorinostat] (first compound 0.016 µM, partner dose 0.08 µM) was run?
**A.** 82.3%

**Q.** Which cell count does the source give for O=C(O)[C@@H]1[O][Sb](=[O])([O][Sb]2(=[O])[O][C@H]([C@H](O)CO)[C@H](O)[C@H](C(=O)O)[O]2)[O][C@H]([C@H](O)CO)[C@@H]1O (stereo partly drawn) [stibogluconate] + Cc1ccc(NC(=O)c2cccc(N(C)C)c2)cc1NC(=O)c1ccc(O)cc1 [ZM336372] (first compound 2 µM, partner dose 2 µM) here?
**A.** 98.3%

**Q.** O=C(O)[C@@H]1[O][Sb](=[O])([O][Sb]2(=[O])[O][C@H]([C@H](O)CO)[C@H](O)[C@H](C(=O)O)[O]2)[O][C@H]([C@H](O)CO)[C@@H]1O (stereo partly drawn) [stibogluconate] + CN(C)S(=O)(=O)c1ccc2c(c1)/C(=C/c1cc3c([nH]1)CCCC3)C(=O)N2 [SU6656] (first compound 2 µM, partner dose 0.4 µM) was tested. Which cell count did it give?
**A.** 86.8%

**Q.** O=C(Nc1cc(C(F)(F)F)cc(C(F)(F)F)c1)c1cc(Cl)ccc1O + Cc1ccc(Nc2nccc(N(C)c3ccc4c(C)n(C)nc4c3)n2)cc1S(N)(=O)=O [Pazopanib] (first compound 0.016 µM, partner dose 0.4 µM) was tested. Which cell count did it give?
**A.** 128%

**Q.** How did the cell count turn out when O=C(Nc1cc(C(F)(F)F)cc(C(F)(F)F)c1)c1cc(Cl)ccc1O + O=C(O)c1ccc(-c2c[nH]c3ncc(-c4ccccc4)cc23)cc1C1CCCC1 [GSK650394] (first compound 0.016 µM, partner dose 0.16 µM) was run?
**A.** 90.4%

**Q.** Which cell count does the source give for O=C(O)c1ccc2c(c1)nc(Nc1cccc(Cl)c1)c1ccncc12 + C[C@@H]1CCN(C(=O)CC#N)C[C@@H]1N(C)c1ncnc2[nH]ccc12 [CP690550] (first compound 0.4 µM, partner dose 1 µM) here?
**A.** 95.5%

**Q.** How did the cell count turn out when O=C(Nc1cc(C(F)(F)F)cc(C(F)(F)F)c1)c1cc(Cl)ccc1O + C[C@@H]1CCN(C(=O)CC#N)C[C@@H]1N(C)c1ncnc2[nH]ccc12 [CP690550] (first compound 0.016 µM, partner dose 1 µM) was run?
**A.** 82.5%

**Q.** With O=C(O)[C@@H]1[O][Sb](=[O])([O][Sb]2(=[O])[O][C@H]([C@H](O)CO)[C@H](O)[C@H](C(=O)O)[O]2)[O][C@H]([C@H](O)CO)[C@@H]1O (stereo partly drawn) [stibogluconate] + CO[C@@H]1[C@H](N(C)C(=O)c2ccccc2)C[C@H]2O[C@]1(C)n1c3ccccc3c3c4c(c5c6ccccc6n2c5c31)C(=O)NC4 [Midostaurin] (first compound 2 µM, partner dose 0.08 µM) as the compound, how does the cell count read?
**A.** 89.3%

**Q.** O=C(O)[C@@H]1[O][Sb](=[O])([O][Sb]2(=[O])[O][C@H]([C@H](O)CO)[C@H](O)[C@H](C(=O)O)[O]2)[O][C@H]([C@H](O)CO)[C@@H]1O (stereo partly drawn) [stibogluconate] + CC(=O)c1c(C)c2cnc(Nc3ccc(N4CCNCC4)cn3)nc2n(C2CCCC2)c1=O [palbociclib] (first compound 2 µM, partner dose 0.04 µM) was tested. Which cell count did it give?
**A.** 27.6%

**Q.** O=C(O)[C@@H]1[O][Sb](=[O])([O][Sb]2(=[O])[O][C@H]([C@H](O)CO)[C@H](O)[C@H](C(=O)O)[O]2)[O][C@H]([C@H](O)CO)[C@@H]1O (stereo partly drawn) [stibogluconate] + COc1cc(Nc2ncc(F)c(Nc3ccc4c(n3)NC(=O)C(C)(C)O4)n2)cc(OC)c1OC [Tamatinib] (first compound 2 µM, partner dose 0.4 µM) was tested. Which cell count did it give?
**A.** 84.8%

**Q.** O=C(Nc1cc(C(F)(F)F)cc(C(F)(F)F)c1)c1cc(Cl)ccc1O + CC1(C)CCC(c2ccc(Cl)cc2)=C(CN2CCN(c3ccc(C(=O)NS(=O)(=O)c4ccc(N[C@H](CCN5CCOCC5)CSc5ccccc5)c(S(=O)(=O)C(F)(F)F)c4)cc3)CC2)C1 [ABT263] (first compound 0.016 µM, partner dose 0.4 µM) was tested. Which cell count did it give?
**A.** 85.7%

**Q.** With O=C(O)[C@@H]1[O][Sb](=[O])([O][Sb]2(=[O])[O][C@H]([C@H](O)CO)[C@H](O)[C@H](C(=O)O)[O]2)[O][C@H]([C@H](O)CO)[C@@H]1O (stereo partly drawn) [stibogluconate] + C=CCn1c(=O)c2cnc(Nc3ccc(N4CCN(C)CC4)cc3)nc2n1-c1cccc(C(C)(C)O)n1 [MK1775] (first compound 2 µM, partner dose 0.02 µM) as the compound, how does the cell count read?
**A.** 84.5%

**Q.** Which cell count does the source give for O=C(Nc1cc(C(F)(F)F)cc(C(F)(F)F)c1)c1cc(Cl)ccc1O + CN(c1ncccc1CNc1nc(Nc2ccc3c(c2)CC(=O)N3)ncc1C(F)(F)F)S(C)(=O)=O [PF562271] (first compound 0.016 µM, partner dose 0.08 µM) here?
**A.** 222%

**Q.** O=C(Nc1cc(C(F)(F)F)cc(C(F)(F)F)c1)c1cc(Cl)ccc1O + COc1ccc(C2=N[C@@H](c3ccc(Cl)cc3)[C@@H](c3ccc(Cl)cc3)N2C(=O)N2CCNC(=O)C2)c(OC(C)C)c1 [Nutlin-3] (first compound 0.016 µM, partner dose 0.1 µM) was tested. Which cell count did it give?
**A.** 84.8%

**Q.** Which cell count does the source give for O=C(Nc1cc(C(F)(F)F)cc(C(F)(F)F)c1)c1cc(Cl)ccc1O + CN1CCN(c2ccc3nc(-c4c(N)c5c(F)cccc5[nH]c4=O)[nH]c3c2)CC1 [Dovitinib] (first compound 0.016 µM, partner dose 0.1 µM) here?
**A.** 61.1%

**Q.** How did the cell count turn out when Cc1cc(N2CCOCC2)cc2[nH]c(-c3c(NC[C@@H](O)c4cccc(Cl)c4)cc[nH]c3=O)nc12 + OCCn1cc(-c2cnc3nnn(Cc4ccc5ncccc5c4)c3n2)cn1 [PF04217903] (first compound 0.2 µM, partner dose 1 µM) was run?
**A.** 81.2%

**Q.** How did the cell count turn out when O=C(O)[C@@H]1[O][Sb](=[O])([O][Sb]2(=[O])[O][C@H]([C@H](O)CO)[C@H](O)[C@H](C(=O)O)[O]2)[O][C@H]([C@H](O)CO)[C@@H]1O (stereo partly drawn) [stibogluconate] + COc1ccc(Cl)c(Nc2nc3ccccc3nc2NS(=O)(=O)c2cccc(NC(=O)C(C)(C)N)c2)c1 [XL147] (first compound 2 µM, partner dose 0.8 µM) was run?
**A.** 90.7%

**Q.** O=C(O)c1ccc2c(c1)nc(Nc1cccc(Cl)c1)c1ccncc12 + Nc1ccn([C@@H]2O[C@H](CO)[C@@H](O)C2(F)F)c(=O)n1 [gemcitabine] (first compound 0.4 µM, partner dose 0.0004 µM) was tested. Which cell count did it give?
**A.** 81.8%
